# Measured values taken from the supplement of paper PMC8728848.
# The other results are listed elsewhere or left out.
# B1: LecRKVI.2 (protein)
# chain: RTTTNFAFRGFNGNQSKIRIEGAAMIKPDGLLRLTDRKSNVTGTAFYHKPVRLLNRNSTNVTIRSFSTSFVFVIIPSSSSNKGFGFTFTLSPTPYRLNAGSAQYLGVFNKENNGDPRNHVFAVEFDTVQGSRDDNTDRIGNDIGLNYNSRTSDLQEPVVYYNNDDHNKKEDFQLESGNPIQALLEYDGATQMLNVTVYPARLGFKPTKPLISQHVPKLLEIVQEEMYVGFTASTGKGQSSAHYVMGWSFSSGGERPIADVLILSELPPPPPNKAKKEGLNS
# Assays:
# Assay in all cases: glycan array binding signal (z-score within array); higher = stronger binding
# Conditions in all cases: glycan notation: IUPAC condensed, linker removed
# Fuc(a1-2)Gal = biological target: Fuc(a1-2)Gal
# Method in brief: (§1)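 Columns mapping to the same glycan were averaged after glycan names were converted to IUPAC-condensed notation. The data come from 3228 arrays in the Consortium for Functional Glycomics database, limited to those with an available protein sequence. Binding is reported as a within-array Z-score averaged across arrays of one protein sequence and across linkers.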
# Fuc(a1-2)Gal(b1-3)GalNAc = biological target: Fuc(a1-2)Gal(b1-3)GalNAc
# Method in brief: as §1
# [1] = biological target: Fuc(a1-2)Gal(b1-3)GalNAc(a1-3)[Fuc(a1-2)]Gal(b1-4)Glc
# Method in brief: as §1
# [2] = biological target: Fuc(a1-2)Gal(b1-3)GalNAc(a1-3)[Fuc(a1-2)]Gal(b1-4)GlcNAc
# Method in brief: as §1
# [3] = biological target: Fuc(a1-2)Gal(b1-3)GalNAc(b1-3)Gal
# Method in brief: as §1
# [4] = biological target: Fuc(a1-2)Gal(b1-3)GalNAc(b1-3)Gal(a1-4)Gal(b1-4)Glc
# Method in brief: as §1
# [5] = biological target: Fuc(a1-2)Gal(b1-3)GalNAc(b1-4)[Neu5Ac(a2-3)]Gal(b1-4)Glc
# Method in brief: as §1
# Fuc(a1-2)Gal(b1-3)GlcNAc = biological target: Fuc(a1-2)Gal(b1-3)GlcNAc
# Method in brief: as §1
# [6] = biological target: Fuc(a1-2)Gal(b1-3)GlcNAc(b1-2)Man(a1-3)[Fuc(a1-2)Gal(b1-3)GlcNAc(b1-2)Man(a1-6)]Man(b1-4)GlcNAc(b1-4)GlcNAc
# Method in brief: as §1
# [7] = biological target: Fuc(a1-2)Gal(b1-3)GlcNAc(b1-2)Man(a1-3)[Fuc(a1-2)Gal(b1-3)GlcNAc(b1-2)Man(a1-6)]Man(b1-4)GlcNAc(b1-4)[Fuc(a1-6)]GlcNAc
# Method in brief: as §1
# [8] = biological target: Fuc(a1-2)Gal(b1-3)GlcNAc(b1-3)Gal(b1-4)Glc
# Method in brief: as §1
# [9] = biological target: Fuc(a1-2)Gal(b1-3)GlcNAc(b1-3)GalNAc
# Method in brief: as §1
# [10] = biological target: Fuc(a1-2)Gal(b1-3)GlcNAc(b1-3)[Fuc(a1-2)Gal(b1-3)GlcNAc(b1-6)]GalNAc
# Method in brief: as §1
# [11] = biological target: Fuc(a1-2)Gal(b1-3)GlcNAc(b1-3)[Gal(b1-4)GlcNAc(b1-6)]Gal(b1-4)Glc
# Method in brief: as §1
# [12] = biological target: Fuc(a1-2)Gal(b1-3)GlcNAc(b1-3)[Neu5Ac(a2-6)Gal(b1-4)GlcNAc(b1-6)]Gal(b1-4)Glc
# Method in brief: as §1
# [13] = biological target: Fuc(a1-2)Gal(b1-3)GlcNAc6S
# Method in brief: as §1
# [14] = biological target: Fuc(a1-2)Gal(b1-3)[Fuc(a1-4)]GlcNAc
# Method in brief: as §1
# [15] = biological target: Fuc(a1-2)Gal(b1-3)[Fuc(a1-4)]GlcNAc(b1-2)Man(a1-3)[Fuc(a1-2)Gal(b1-3)[Fuc(a1-4)]GlcNAc(b1-2)Man(a1-3)]Man(b1-4)GlcNAc(b1-4)GlcNAc
# Method in brief: as §1
# [16] = biological target: Fuc(a1-2)Gal(b1-3)[Fuc(a1-4)]GlcNAc(b1-2)Man(a1-3)[Fuc(a1-2)Gal(b1-3)[Fuc(a1-4)]GlcNAc(b1-2)Man(a1-6)]Man(b1-4)GlcNAc(b1-4)[Fuc(a1-6)]GlcNAc(b1-4)[Fuc(a1-6)]GlcNAc
# Method in brief: as §1
# [17] = biological target: Fuc(a1-2)Gal(b1-3)[Fuc(a1-4)]GlcNAc(b1-3)[Fuc(a1-3)[Gal(b1-4)]GlcNAc(b1-6)]Gal(b1-4)Glc
# Method in brief: as §1
# [18] = biological target: Fuc(a1-2)Gal(b1-3)[Fuc(a1-4)]GlcNAc(b1-3)[Gal(b1-4)GlcNAc(b1-6)]Gal(b1-4)Glc
# Method in brief: as §1
# Fuc(a1-2)Gal(b1-4)Glc = biological target: Fuc(a1-2)Gal(b1-4)Glc
# Method in brief: as §1
# Fuc(a1-2)Gal(b1-4)Glc6S = biological target: Fuc(a1-2)Gal(b1-4)Glc6S
# Method in brief: as §1
# Fuc(a1-2)Gal(b1-4)GlcNAc = biological target: Fuc(a1-2)Gal(b1-4)GlcNAc
# Method in brief: as §1
# [19] = biological target: Fuc(a1-2)Gal(b1-4)GlcNAc(b1-2)Man
# Method in brief: as §1
# [20] = biological target: Fuc(a1-2)Gal(b1-4)GlcNAc(b1-2)Man(a1-3)[Fuc(a1-2)Gal(b1-4)GlcNAc(b1-2)Man(a1-6)]Man(b1-4)GlcNAc(b1-4)GlcNAc
# Method in brief: as §1
# [21] = biological target: Fuc(a1-2)Gal(b1-4)GlcNAc(b1-2)Man(a1-3)[Fuc(a1-2)Gal(b1-4)GlcNAc(b1-2)Man(a1-6)]Man(b1-4)GlcNAc(b1-4)[Fuc(a1-6)]GlcNAc
# Method in brief: as §1
# [22] = biological target: Fuc(a1-2)Gal(b1-4)GlcNAc(b1-2)[Fuc(a1-2)Gal(b1-4)GlcNAc(b1-4)]Man(a1-3)[Fuc(a1-2)Gal(b1-4)GlcNAc(b1-2)Man(a1-6)]Man(b1-4)GlcNAc(b1-4)GlcNAc
# Method in brief: as §1
# [23] = biological target: Fuc(a1-2)Gal(b1-4)GlcNAc(b1-3)Gal(b1-4)GlcNAc
# Method in brief: as §1
# [24] = biological target: Fuc(a1-2)Gal(b1-4)GlcNAc(b1-3)Gal(b1-4)GlcNAc(b1-2)Man(a1-3)[Fuc(a1-2)Gal(b1-4)GlcNAc(b1-3)Gal(b1-4)GlcNAc(b1-2)Man(a1-6)]Man(b1-4)GlcNAc(b1-4)GlcNAc
# Method in brief: as §1
binder,measurement,setting,value
B1,glycan array binding signal (z-score),Fuc(a1-2)Gal,-0.333
same,glycan array binding signal (z-score),Fuc(a1-2)Gal(b1-3)GalNAc,-0.345
same,glycan array binding signal (z-score),[1],-0.453
same,glycan array binding signal (z-score),[2],-0.334
same,glycan array binding signal (z-score),[3],-0.291
same,glycan array binding signal (z-score),[4],-0.133
same,glycan array binding signal (z-score),[5],-0.34
same,glycan array binding signal (z-score),Fuc(a1-2)Gal(b1-3)GlcNAc,-0.368
same,glycan array binding signal (z-score),[6],2.66
same,glycan array binding signal (z-score),[7],-0.373
same,glycan array binding signal (z-score),[8],-0.378
same,glycan array binding signal (z-score),[9],-0.385
same,glycan array binding signal (z-score),[10],0.031
same,glycan array binding signal (z-score),[11],-0.237
same,glycan array binding signal (z-score),[12],-0.471
same,glycan array binding signal (z-score),[13],-0.436
same,glycan array binding signal (z-score),[14],-0.312
same,glycan array binding signal (z-score),[15],-0.325
same,glycan array binding signal (z-score),[16],-0.21
same,glycan array binding signal (z-score),[17],-0.439
same,glycan array binding signal (z-score),[18],-0.205
same,glycan array binding signal (z-score),Fuc(a1-2)Gal(b1-4)Glc,-0.455
same,glycan array binding signal (z-score),Fuc(a1-2)Gal(b1-4)Glc6S,-0.326
same,glycan array binding signal (z-score),Fuc(a1-2)Gal(b1-4)GlcNAc,-0.313
same,glycan array binding signal (z-score),[19],-0.323
same,glycan array binding signal (z-score),[20],3.27
same,glycan array binding signal (z-score),[21],-0.27
same,glycan array binding signal (z-score),[22],-0.369
same,glycan array binding signal (z-score),[23],-0.395
same,glycan array binding signal (z-score),[24],1.34
